This note sets out measurements from PubChem BioAssay AID1240 (Sanford-Burnham Center for Chemical Genomics, 2008).

Molecules are shown by their SMILES. Out of some 50,000 compounds screened, about 800 (1.6%) showed an effect of 50% or more. This is one part of the list.

For this assay, the target named is Bcl-2-like protein 10 (Homo sapiens) (UniProt Q9HD36). Nature of the assay: Phenotype converters, Bcl-B/TR3 peptide binding displacement, primary biochemical FP (AID 1240).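 Also: 0% = Bcl-B with tracer peptide and DMSO and 100% = tracer peptide lacking Bcl-B.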 The following applies: GST-Bcl-B / FITC-TR3 peptide fluorescence polarization; stronger effect = higher value; compound at 3.75 mg/L.
Chain of UniProt Q9HD36 (Q9HD36 whole entry, looked up): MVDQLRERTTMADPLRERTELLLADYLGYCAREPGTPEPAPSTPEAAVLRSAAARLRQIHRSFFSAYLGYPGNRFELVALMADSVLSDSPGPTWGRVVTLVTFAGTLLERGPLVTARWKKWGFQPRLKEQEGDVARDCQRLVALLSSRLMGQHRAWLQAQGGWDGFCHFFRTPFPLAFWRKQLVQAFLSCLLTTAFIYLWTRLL
As for `CC(=O)Oc1ccc(-c2cccc(NC(=O)c3ccc4c(c3)Cc3ccccc3-4)c2)cc1`, the displacement came to 11.7%.

In the case of `C=CCn1c(-c2ccc(C(C)(C)C)cc2)n[nH]c1=S`, the displacement is -1.8%. As for `O=c1c(/C=N/Nc2nc3ccccc3s2)c(C(F)(F)F)[nH]n1-c1nc2ccccc2s1`, the figure is -25.1%. As for `CCOc1cccc(C(=O)Nc2nc3ccc(C)cc3s2)c1`, the figure is 10%; as for `S=C(Nc1cccc(Cl)c1)N1CCOCC1`, -3.9%. As for `COc1ccc(-n2nc3cc(C)c(NC(=O)c4cccnc4)cc3n2)cc1`, the figure is 5.1%; as for `COc1cc(OC)cc(C(=O)Nc2cccc(-c3nc4ccccc4[nH]3)c2)c1`, -7.2%. For the compound `COc1ccc(CCNC2CC(=O)N(c3ccc(Br)cc3)C2=O)cc1` (centres undefined), the displacement was -8%. As for `Cc1ccc(S(=O)(=O)N2CCCC2C(=O)Nc2ccc([N+](=O)[O-])cc2)cc1` (centres undefined), the figure is -6.6%. `O=C1C2C(C(=O)N1c1ccc(Cl)cc1)C2(c1ccccc1)c1ccccc1` (centres undefined): the displacement was -10.2%. With `C(#Cc1ccccc1)CN1CCOCC1`, the displacement turned out to be 2.4%. Consider `CCc1nccn1S(=O)(=O)c1ccc2ccccc2c1`, for which the displacement is -3.4%. For `CCOC(=O)c1conc1-c1ccc(SC)cc1` the value was 6.5%; for `COc1ccc(CN2CCN(Cc3cc(OC)c(OC)c(OC)c3)CC2)cc1`, 2.4%; for `O=C(/C=C/c1ccccc1)NC(=S)Nc1ccc2oc(-c3cccnc3)nc2c1`, 2.7%. For `COc1ccc(C2NC(=O)NC(C)=C2C(=O)Nc2ccc(Cl)cc2)cc1` (centres undefined) the value was -5.4%; for `COc1ccccc1/C=C1\SC(=S)N(c2cccc(C(=O)O)c2)C1=O`, -3.2%.

`O=C(Nc1ccc(Cl)cc1)Nc1nnc(C(c2ccccc2)c2ccccc2)s1`: the displacement is -1.5%.

As for `CC1(C)CC(=O)C=C(Nc2ccc(NC3=CC(=O)CC(C)(C)C3)cc2)C1`, the displacement came out at 5.5%. As for `C#CCSc1nc2ccccc2c(=O)[nH]1`, the figure is -3.5%; as for `CCC1=NN(C(=O)c2ccccc2)C(O)(c2ccc(Br)cc2)C1` (centres undefined), 7.6%. As for `CC(C)(C)c1cnnn1-c1ccc(N)cc1`, the displacement is 2.9%.

As for `O=S1(=O)CCC(Oc2ccc(Br)cc2)C1` (centres undefined), the displacement was -2.2%. As for `CCCOc1ccccc1/C=C1/C(=O)NN(c2ccccc2)C1=O`, the figure is 10.6%; as for `O=S(=O)(c1ccc(NC(=S)Nc2ccccc2)cc1)N1CCCCC1`, 5.3%; as for `COC(C(=O)N/N=C/c1cc([N+](=O)[O-])ccc1Cl)c1ccccc1` (centres undefined), 7.1%. For `O=C1c2ccc([N+](=O)[O-])cc2C(=O)N1c1cccnc1` the value was 5.9%; for `Cc1ccc(C23CC4CC(CC(C(=O)O)(C4)C2)C3)cc1`, 12.4%; for `O=C(/C=C/c1ccc2c(c1)OCO2)NCc1ccc(Cl)cc1Cl`, -6.5%. For `CN1C(=O)CC(N2CCN(C/C=C/c3ccccc3)CC2)C1=O` (centres undefined) the value was -11.7%.

On to `FC(F)(F)c1ccc2nnc(-c3c(Cl)cccc3Cl)n2c1`, for which the displacement was determined as 6.6%. As for `O=C(Nc1nc(-c2ccc(F)cc2)cs1)c1ccccc1[N+](=O)[O-]`, the figure is 8.9%. As to `O=C1c2cccc3c([N+](=O)[O-])ccc(c23)C(=O)N1Cc1cccnc1`, the displacement stood at 37.7%. Consider `Cc1ccc(-c2cc(OC(=O)c3ccccc3)cc3sc(=O)oc23)cc1`, for which the displacement amounted to 1%. For `COC(=O)C1=NNC2C(=O)N(c3cccc(C)c3)C(=O)C12` (centres undefined) the value was -4.8%. As for `Cc1cc(=O)oc2cc(OCc3ccc(Cl)c(Cl)c3)ccc12`, the figure is 8.6%; as for `O=C(Nc1nccs1)c1cccc(N2C(=O)c3ccc([N+](=O)[O-])cc3C2=O)c1`, 11.2%; as for `CC(/C=C/c1ccc(I)cc1)=C\C(=O)O`, 1.5%. For `COc1ccc(N2C(=O)C3C(C2=O)C2C=CC3C23CC3)c([N+](=O)[O-])c1` (centres undefined) the value was 14.6%; for `O=C(NOC(=O)c1ccc(Cl)cc1Cl)c1ccc(Cl)cc1`, 4.5%.

For `C#CCOC(=O)C(C=C=C)(C(=O)OCC)C(F)(F)F` (centres undefined), the displacement was 0.2%.

Regarding `CCCOC(=O)/C(C(N)=NCCO)=C(/O)OCCC`, the displacement is -10.3%. Regarding `C/C(=N\NC(=O)c1ccc(C(C)(C)C)cc1)c1ccc(C)o1`, the displacement came to 8.1%. As for `CC(=O)NC1=NC(=O)/C(=C\c2ccc(Br)o2)S1`, the figure is 1.4%; as for `O=C(c1cccc(F)c1F)N1CCN(c2cc(N3CCOCC3)c(F)cc2[N+](=O)[O-])CC1`, -12.7%; as for `CCCn1c(C(O)c2ccc(OCc3ccccc3)c(OC)c2)nc2ccccc21` (centres undefined), -4.1%. On to `CCOC(=O)C1=C(C)N=c2s/c(=C\c3ccc4c(c3)OCO4)c(=O)n2C1c1ccc2c(c1)OCO2` (centres undefined), for which the displacement was determined as 3.5%. As for `CC(C)CCOC(=O)c1ccc2c3c(onc13)-c1ccccc1C2=O`, the figure is 21%. For `O=C1c2ccccc2NC(c2ccc(Cl)cc2Cl)N1Cc1ccco1` (centres undefined) the value was 12.4%; for `COc1ccc(/C(O)=C2/C(=O)C(=O)N(CCCCCC(=O)O)C2c2ccc(C)cc2)cc1` (centres undefined), -6.5%. With `C#CCOC(=O)CN1C(=O)c2cccc3cccc(c23)C1=O`, the displacement was found to be 7.9%.

As to `Cc1oc2ccc(OC(C)C(=O)O)cc2c1C(=O)OC(C)C` (centres undefined), the displacement worked out at 8.1%. As for `O=C1C(=O)N(CCCn2ccnc2)C(c2ccc([N+](=O)[O-])cc2)/C1=C(\O)c1ccc(Cl)cc1` (centres undefined), the figure is 3.9%; as for `O=C(Nc1ccc(OC(F)(F)F)cc1)c1ccc([N+](=O)[O-])cc1Cl`, -0.6%; as for `O=C1CC(N2CCN(C(c3ccccc3)c3ccccc3)CC2)C(=O)N1c1ccc(Cl)cc1` (centres undefined), 11.8%. For `CC(NC(=O)Cc1ccccc1)c1ccc(Cl)c(Cl)c1` (centres undefined) the value was 11.1%; for `CCOc1ccccc1NC(=O)C(=O)NCCCN1CCOCC1`, 9%; for `CCOc1ccc(N2C(=O)NC(=O)/C(=C\c3ccc([N+](=O)[O-])cc3)C2=O)cc1`, -2.1%. For `COC(=O)c1cc(C(=O)N2CCOCC2)cc([N+](=O)[O-])c1` the value was 10.5%. For the compound `COC(=O)c1cccc(OC)c1[N+](=O)[O-]`, the displacement was determined as 10.6%.

On to `COc1ccc2nc(-c3ccccc3)cc(C(=O)Nc3ccccc3C)c2c1`, for which the displacement amounted to 13.5%. As for `O=C(CN(Cc1ccccc1)S(=O)(=O)c1ccc(Br)cc1)N1CCOCC1`, the figure is -8%; as for `Cc1cc(C)c(S(=O)(=O)NCc2ccncc2)c(C)c1`, 11.4%. For `O=P(CCCO)(c1ccc(Cl)cc1)c1ccc(Cl)cc1` the value was -24.4%; for `O=C(Nc1ccc(S(=O)(=O)N2CCCCCC2)cc1)c1ccccc1[N+](=O)[O-]`, -5.1%; for `Cc1ccc(-c2nc3cc(Cl)ccc3o2)cc1NC(=O)c1ccc2ccccc2c1`, 128%. For `COc1cc(/C=N/n2cnnc2)ccc1OCCOc1ccc(C(C)(C)C)cc1` the value was -0.9%; for `O=C(NC1CCCCC1)c1ccc(Br)c(S(=O)(=O)N2CCOCC2)c1`, -2.8%; for `COC(=O)c1c(N2C(=O)C=CC2=O)sc(C)c1C`, -0.2%.

For `COC(=O)C1=C(C)NC2=C(C(=O)c3ccccc32)C1c1ccc(OCc2ccc([N+](=O)[O-])cc2)c(Cl)c1` (centres undefined), the displacement was found to be 13.6%. For `COc1ccc2c(c1)OCC/C2=N\OC(=O)c1cc(F)c(F)cc1Cl` the value was 9.5%; for `O=C(NCCOc1ccccc1Cl)c1cccc2ccccc12`, 13.4%. For `Cc1nnc(C)n1/N=C/c1ccc(O)cc1` the value was -1.3%; for `CCOC(=O)CCc1c(C)nc2cc(-c3cccc(Cl)c3)[nH]n2c1=O`, -4.3%; for `O=C(Cc1ccc(Cl)cc1)NCc1cccnc1`, -6%. Consider `Cc1cc(NC(=O)c2ccc(-c3ccccc3)cc2)no1`, for which the displacement was -5.6%. As for `CCC(=O)Nc1c(-c2ccc(C)cc2)nc2ccccn12`, the figure is 20%. For `O=C(COc1ccc2ccccc2c1)Nc1ccc(S(=O)(=O)N2CCCC2)cc1` the value was 0.6%; for `CC(=O)Nc1nonc1-c1ccccc1`, -11.6%; for `COc1cc(/C=C2\N=C(c3ccccc3Cl)OC2=O)ccc1OC(=O)c1ccccc1Cl`, -7.3%. As for `CCc1ccc(OCC(=O)Nc2ccc(NC(=O)c3ccco3)c(OC)c2)cc1`, the figure is -17.6%.

As for `CCCOC(=O)/C(=C\c1cccc([N+](=O)[O-])c1)NC(=O)c1ccccc1`, the displacement is -8.7%. As for `CC(=O)Oc1ccc2c(=O)c(-c3nc4ccccc4[nH]3)c(C)oc2c1`, the figure is 12.2%; as for `O=C(Nc1ccc2c(c1)OCCO2)c1cccc([N+](=O)[O-])c1`, 13%; as for `Nc1ccc(NC(=O)c2ccccc2)cc1`, 39.8%. As for `O=C(CSc1ncccn1)N/N=C/c1ccccc1Cl`, the figure is 1.2%; as for `COc1ccccc1NC(=O)N1CCOCC1`, -6.8%. As for `Cc1cccc(CC2CC(=O)N(c3ccc(Cl)c(Cl)c3)C2=O)c1` (centres undefined), the figure is 11.4%; as for `O=C(O)CCN1C(=O)/C(=C/c2cn(-c3ccccc3)nc2-c2cccs2)SC1=S`, -14.1%. `COc1ccc(Cl)cc1C(=O)N1CCN(c2cccc(Cl)c2)CC1`: the displacement amounted to 12.3%.

Regarding `CCc1ccccc1NS(=O)(=O)c1cccs1`, the displacement was -1.4%.

Turning to `C=CCOc1c(Cl)cc(/C=C2\C(=O)NC(=O)N(c3ccc(Cl)cc3)C2=O)cc1OC`, the displacement is 4.5%.

`CC1=NN(C(=O)c2ccccc2)C(C)(O)C1` (centres undefined): the displacement is -11.2%. As for `O=C(Nc1cccc(C(F)(F)F)c1)c1cnn2c(C(F)(F)F)cc(-c3cccs3)nc12`, the figure is 13.5%. For `COc1ccccc1N1CCN(S(=O)(=O)c2ccc(SC)cc2)CC1`, the displacement turned out to be 11.2%. As for `COC(=O)CC12CC3CC(C1)CC(CC(=O)OC)(C3)C2`, the figure is 14.3%; as for `CN=C(Nc1ccccc1OC)SC1CC(=O)N(c2ccccc2F)C1=O` (centres undefined), -12.1%; as for `O=S(=O)(c1ccc(Br)cc1)n1nnc2ccccc21`, 11%.

With `COc1nc(Nc2ccc(I)cc2)nc(OC)n1`, the displacement was -0.1%.

On to `Cc1ccc(NC(=O)c2cccc(C(=O)Nc3ccc(C)cc3)n2)cc1`, for which the displacement was found to be 7.4%.

`CC(C)(O)C#Cc1ccc(C(=O)OCC(=O)c2ccc([N+](=O)[O-])cc2)cc1`: the displacement amounted to 1.8%.

As to `COc1ccc(/C=C2/SC(N3CCN(C(=O)CN4C(=O)S/C(=C\c5ccccc5F)C4=O)CC3)=NC2=O)cc1`, the displacement worked out at 11.1%. For `COc1cc(NC(=O)C(=O)NCc2ccco2)c(OC)cc1Cl` the value was -10.7%; for `O=C(NCCNc1ccc([N+](=O)[O-])cc1)c1ccccc1Br`, 29.5%; for `COc1ccc(-c2cc(C(F)(F)F)n3ncc(C(=O)Nc4ccc5c(c4)OCO5)c3n2)cc1OC`, 7.1%.

For the compound `CCc1ccccc1NC(=O)c1c(NC(=O)c2cccs2)sc2c1CCCCC2`, the displacement was determined as 0.3%. As for `C=CCNC(=O)C1CC(=O)N(c2ccc(CC)cc2)C1` (centres undefined), the figure is -1.8%; as for `COc1ccc(N(CC(=O)Nc2ccc(Br)cc2)S(C)(=O)=O)cc1Cl`, -11%.

Turning to `CC1=C(C(=O)OC(C)C)C(c2cccc(Cl)c2Cl)C2=C(CCCC2=O)N1` (centres undefined), the displacement worked out at 3.3%.
